This note sets out measurements from article PMC5342809.

By UniProt entry, the sequences of proteins in these tests, tags left out. Where a name states a change or a piece, a line headed by the entry shows the natural chain unless it says otherwise. Residues count along the entry.
UniProt P84022: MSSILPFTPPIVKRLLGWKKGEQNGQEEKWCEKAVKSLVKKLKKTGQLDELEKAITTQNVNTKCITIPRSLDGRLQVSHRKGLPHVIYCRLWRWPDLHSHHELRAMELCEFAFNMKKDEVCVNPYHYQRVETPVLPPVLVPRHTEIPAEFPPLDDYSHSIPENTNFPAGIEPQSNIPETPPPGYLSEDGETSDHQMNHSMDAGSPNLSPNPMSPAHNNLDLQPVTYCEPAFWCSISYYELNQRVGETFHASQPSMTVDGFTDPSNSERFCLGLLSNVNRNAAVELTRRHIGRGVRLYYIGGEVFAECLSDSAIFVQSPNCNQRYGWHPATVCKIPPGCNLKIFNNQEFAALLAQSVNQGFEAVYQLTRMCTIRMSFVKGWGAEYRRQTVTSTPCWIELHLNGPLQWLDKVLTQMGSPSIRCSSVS
GST-Smad3-MH1: residues 1-200 of P84022
UniProt Q15796: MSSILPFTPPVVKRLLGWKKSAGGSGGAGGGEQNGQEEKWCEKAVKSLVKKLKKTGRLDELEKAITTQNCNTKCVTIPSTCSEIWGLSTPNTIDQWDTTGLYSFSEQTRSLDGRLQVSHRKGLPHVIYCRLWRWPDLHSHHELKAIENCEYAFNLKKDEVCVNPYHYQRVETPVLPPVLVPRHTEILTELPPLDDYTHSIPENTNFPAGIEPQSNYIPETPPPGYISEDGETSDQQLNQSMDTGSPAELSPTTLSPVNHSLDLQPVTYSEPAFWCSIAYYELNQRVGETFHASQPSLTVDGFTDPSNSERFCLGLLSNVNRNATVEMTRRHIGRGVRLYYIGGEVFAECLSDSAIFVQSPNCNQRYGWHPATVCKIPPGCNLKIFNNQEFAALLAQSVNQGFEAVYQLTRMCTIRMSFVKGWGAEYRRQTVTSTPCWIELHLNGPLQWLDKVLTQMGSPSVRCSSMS

No constants are given. Whether binding was seen depends on the method and setting. In cells and extracts the contact can be indirect. Some binding calls cover weakened binding; strength is not graded here. For some of these results: Sequences can lack the tags named with a protein.

One assay addresses T1, Flag-Kindlin-1 (UniProt Q9BQL6).
T1 sequence: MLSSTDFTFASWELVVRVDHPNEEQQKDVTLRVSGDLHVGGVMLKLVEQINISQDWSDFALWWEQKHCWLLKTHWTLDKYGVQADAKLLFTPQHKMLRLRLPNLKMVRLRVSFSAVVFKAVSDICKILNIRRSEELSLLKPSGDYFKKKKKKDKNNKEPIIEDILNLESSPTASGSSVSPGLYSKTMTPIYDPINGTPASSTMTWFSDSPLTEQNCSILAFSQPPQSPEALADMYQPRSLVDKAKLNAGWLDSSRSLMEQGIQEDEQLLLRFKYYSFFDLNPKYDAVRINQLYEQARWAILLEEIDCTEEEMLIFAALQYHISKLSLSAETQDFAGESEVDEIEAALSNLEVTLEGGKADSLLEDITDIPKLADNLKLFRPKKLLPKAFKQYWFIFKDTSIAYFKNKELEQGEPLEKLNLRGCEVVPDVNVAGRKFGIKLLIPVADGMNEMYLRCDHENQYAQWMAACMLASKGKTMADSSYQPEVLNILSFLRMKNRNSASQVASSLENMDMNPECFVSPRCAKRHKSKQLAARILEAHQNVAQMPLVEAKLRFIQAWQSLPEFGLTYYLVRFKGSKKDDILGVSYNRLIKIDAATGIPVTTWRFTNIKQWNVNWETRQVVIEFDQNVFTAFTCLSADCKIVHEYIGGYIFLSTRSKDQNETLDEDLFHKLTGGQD
In words: co-IP; anti-Flag antibody on NP40 lysates of HCT116 cells transfected with Flag-Kindlin-1 or its truncations; endogenous partners detected by immunoblot; overnight at 4°C. On the technique in general: In western blotting, separated proteins are transferred to a membrane and probed.

For assay [1], the target named is Smad3 (endogenous) (human (endogenous in HCT116)) (UniProt P84022). In words: co-IP; endogenous proteins from NP40 lysates of HCT116 cells precipitated with anti-Smad3, anti-TβRI or anti-SARA antibody, normal IgG as control, overnight at 4°C; also with Kindlin-1 siRNA, Kindlin-1 overexpression or re-expression, and TGF-β1 stimulation.
Assay [2] addresses T2, TGF-β receptor I (endogenous) (human (endogenous in HCT116)) (UniProt P36897).
T2 sequence: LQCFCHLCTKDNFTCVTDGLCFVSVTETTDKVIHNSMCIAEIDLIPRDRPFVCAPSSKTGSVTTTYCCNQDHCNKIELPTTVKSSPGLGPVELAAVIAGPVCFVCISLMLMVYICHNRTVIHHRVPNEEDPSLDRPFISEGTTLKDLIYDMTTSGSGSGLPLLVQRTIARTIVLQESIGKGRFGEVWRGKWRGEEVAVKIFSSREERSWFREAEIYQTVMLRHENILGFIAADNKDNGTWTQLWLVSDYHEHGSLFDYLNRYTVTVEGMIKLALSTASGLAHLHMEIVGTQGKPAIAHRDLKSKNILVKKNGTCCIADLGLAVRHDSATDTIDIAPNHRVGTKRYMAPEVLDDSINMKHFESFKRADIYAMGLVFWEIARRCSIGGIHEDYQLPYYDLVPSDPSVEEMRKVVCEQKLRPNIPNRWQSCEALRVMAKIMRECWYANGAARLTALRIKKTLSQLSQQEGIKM
The assay is described as above.

Assay [3] has as its target T3, Smad anchor for receptor activation (SARA) (endogenous) (human (endogenous in HCT116)) (UniProt O95405).
T3 sequence: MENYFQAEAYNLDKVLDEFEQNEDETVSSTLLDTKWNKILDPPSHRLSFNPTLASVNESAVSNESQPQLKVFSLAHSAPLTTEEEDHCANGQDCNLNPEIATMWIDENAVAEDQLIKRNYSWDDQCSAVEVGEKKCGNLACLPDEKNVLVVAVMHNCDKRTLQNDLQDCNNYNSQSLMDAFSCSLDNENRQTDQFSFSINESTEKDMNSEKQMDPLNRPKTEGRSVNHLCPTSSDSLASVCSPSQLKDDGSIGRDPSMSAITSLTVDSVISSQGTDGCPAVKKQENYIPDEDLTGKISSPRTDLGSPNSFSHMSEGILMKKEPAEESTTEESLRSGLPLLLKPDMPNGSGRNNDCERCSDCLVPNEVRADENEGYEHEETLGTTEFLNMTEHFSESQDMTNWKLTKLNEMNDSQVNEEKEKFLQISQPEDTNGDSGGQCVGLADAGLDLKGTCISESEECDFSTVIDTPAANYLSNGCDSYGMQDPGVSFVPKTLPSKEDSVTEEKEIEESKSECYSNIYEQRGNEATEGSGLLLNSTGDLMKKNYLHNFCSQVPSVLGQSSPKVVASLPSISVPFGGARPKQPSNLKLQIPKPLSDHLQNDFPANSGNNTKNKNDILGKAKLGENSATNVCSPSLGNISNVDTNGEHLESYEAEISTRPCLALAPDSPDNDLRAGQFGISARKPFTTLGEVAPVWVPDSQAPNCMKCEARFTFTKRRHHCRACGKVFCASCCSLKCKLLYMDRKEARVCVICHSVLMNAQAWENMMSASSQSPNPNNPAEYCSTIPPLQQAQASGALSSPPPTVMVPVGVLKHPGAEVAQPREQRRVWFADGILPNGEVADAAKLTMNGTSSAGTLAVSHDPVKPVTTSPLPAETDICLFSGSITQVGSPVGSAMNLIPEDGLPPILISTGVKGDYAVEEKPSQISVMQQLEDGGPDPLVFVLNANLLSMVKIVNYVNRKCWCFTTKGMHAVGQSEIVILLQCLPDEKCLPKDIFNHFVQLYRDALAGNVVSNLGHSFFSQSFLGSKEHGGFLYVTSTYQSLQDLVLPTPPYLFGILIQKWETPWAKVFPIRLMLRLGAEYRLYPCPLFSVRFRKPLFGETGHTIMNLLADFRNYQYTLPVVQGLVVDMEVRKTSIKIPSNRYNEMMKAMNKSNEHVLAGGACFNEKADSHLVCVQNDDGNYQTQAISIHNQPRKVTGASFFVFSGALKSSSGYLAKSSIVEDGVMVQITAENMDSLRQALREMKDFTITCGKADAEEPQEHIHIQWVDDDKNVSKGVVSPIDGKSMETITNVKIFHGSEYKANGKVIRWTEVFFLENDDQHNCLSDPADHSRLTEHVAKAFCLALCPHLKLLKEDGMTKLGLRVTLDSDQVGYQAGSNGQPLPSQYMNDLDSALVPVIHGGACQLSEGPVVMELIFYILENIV
Described as above.

For another assay, the target named is GST-Smad3-MH1 (UniProt P84022). In words: pull-down; lysates of SW1116 cells transiently transfected with Flag-Kindlin-1 truncations pulled down with GST-fused Smad3 fragments; only the target purified.

Consider “Smad2 (endogenous) (from UniProt Q15796 1-467)”, for which, in the assay with Flag-Kindlin-1, the binding entry is recorded as “no binding”. As to “Smad3 (endogenous) (from UniProt P84022 1-425)”, the binding entry with Flag-Kindlin-1 is reported as “binds”.

B1: Smad anchor for receptor activation (SARA) (endogenous) (protein, UniProt O95405 1-1425)
chain: T3 sequence
Regarding B1, in the assay with Flag-Kindlin-1, the binding result is “binds”.

B2: Kindlin-1 (endogenous) (protein, UniProt Q9BQL6 1-677)
chain: T1 sequence
In the case of B2, the binding result in assay [1], in assay [2] and in assay [3] was “binds” throughout.

B3: Flag-Kindlin-1-N (domain or fragment, UniProt Q9BQL6 1-350)
chain: MLSSTDFTFASWELVVRVDHPNEEQQKDVTLRVSGDLHVGGVMLKLVEQINISQDWSDFALWWEQKHCWLLKTHWTLDKYGVQADAKLLFTPQHKMLRLRLPNLKMVRLRVSFSAVVFKAVSDICKILNIRRSEELSLLKPSGDYFKKKKKKDKNNKEPIIEDILNLESSPTASGSSVSPGLYSKTMTPIYDPINGTPASSTMTWFSDSPLTEQNCSILAFSQPPQSPEALADMYQPRSLVDKAKLNAGWLDSSRSLMEQGIQEDEQLLLRFKYYSFFDLNPKYDAVRINQLYEQARWAILLEEIDCTEEEMLIFAALQYHISKLSLSAETQDFAGESEVDEIEAALSNL
As to B3, the binding result with GST-Smad3-MH1 is listed as “binds”.
